59 compounds from ChEMBL document CHEMBL1201862, “PubChem BioAssay data set” (2004) can be followed below.

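All cell lines were grown in 96-well plates and treated with compound for 48 hours. GI50: concentration for 50% inhibition of growth.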 The source made the active and inactive calls. Cut-off read from the data, not from the text of the source: active = GI50 up to about 1.1 µM and inactive = higher. A value given as a limit tells only on which side of the number the result lay.

For this experiment, the system named is NCI-H322M. The experiment is described as follows: NCI anticancer screen, dose series, 48 h.
`O=C1OC(C(O)C(O)C(O)CO)C(O)C1O` (centres undefined): the GI50 is inactive: > 100 µM. As for `O=c1oc2ccccc2c2nc3ccccc3cc12`, the figure is inactive: 48.6 µM; as for `Nn1c(CCCCCCCCc2nnc(COc3ccc(Cl)cc3Cl)n2N)nnc1COc1ccc(Cl)cc1Cl`, inactive: 87.1 µM. In the case of `COc1ccc(N2C=Nn3c(nc4sc(C)c(C)c4c3=O)C2)cc1` it was inactive: > 100 µM; in that of `NCCCCNCCCNC(=O)c1nc(-c2csc(CCN)n2)sc1Cl`, inactive: > 100 µM; in that of `COc1cc(/C=C2\CCC(C)(CN(C)C)C2=O)cc(OC)c1OC` (centres undefined), inactive: > 100 µM. As for `COC(=O)C(Cc1ccccc1)C(=O)NC(CNC(=O)OCc1ccccc1)C(=O)OCc1ccccc1` (centres undefined), the figure is inactive: 65.9 µM; as for `CC(C)NCC(O)c1ccc(O)c2ncccc12` (centres undefined), inactive: 62.5 µM; as for `COc1cccc(/N=C/c2cc3cc(Br)ccc3nc2Cl)c1`, inactive: 23.6 µM.

As to `CCOC(=O)c1sc2c(c1O)c(=O)n(-c1ccccc1)c(=S)n2-c1ccccc1`, the GI50 is inactive: 23.1 µM. In the case of `CC(=O)c1nccc2c1c(C)nc1ccccc12` it was inactive: > 100 µM; in that of `Nc1ncnc2c1ncn2-c1ccc([N+](=O)[O-])cn1`, inactive: > 100 µM.

Take `COc1cc(NCC(C#N)C#N)ccc1/N=N/c1ccc(Cl)cc1`: the GI50 is inactive: 35 µM. For the compound `COC(=O)C1=CC2C(=O)c3ccccc3C1(c1ccccc1)N2C1CCCCC1` (centres undefined), the GI50 is inactive: 33.4 µM. In the case of `O=C(CCN1CC2CCC(CC2)C1)c1cccs1` it was inactive: > 100 µM; in that of `Clc1ccc(-c2ccc(-c3nnc(CCc4nnc(-c5ccc(-c6ccc(Cl)cc6)o5)o4)o3)o2)cc1`, inactive: > 100 µM.

`CCc1n[nH]c(=O)n1NC(=O)c1ccccc1C(=O)O`: the GI50 was inactive: > 100 µM.

Regarding `COc1cc2c3c(c1OC)Oc1ccc(cc1)CC1c4c(cc(OC)c(OC)c4Oc4ccc(cc4)CC3N(C)CC2)CCN1C` (centres undefined), the GI50 is inactive: 23.7 µM. Consider `Cc1ccc(C(=O)CCC2C(=O)CC(C)(C)CC2=O)cc1`, for which the GI50 was inactive: > 100 µM. In the case of `O=C1NC2OC(CO)C(O)C(O)C2O1` (centres undefined) it was inactive: > 100 µM. In the case of `C=CC[C@]12C[C@@H](C(=O)OC)N(C(=O)OC)[C@H]1N(S(=O)(=O)c1ccccc1)c1ccccc12` it was inactive: > 100 µM; in that of `N#CC(Cc1ccccc1)N(CCC1=CCCCC1)C(c1ccccc1)c1ccccc1` (centres undefined), inactive: > 100 µM. In the case of `NC1=CC(C(=O)c2ccncc2)c2nc3ccccc3nc21` (centres undefined) it was inactive: > 100 µM; in that of `CC1(C)OC2C(O)C(CO)OC2(C(F)F)O1` (centres undefined), inactive: > 100 µM. Consider `CCOC(=O)c1sc2ncnc(N)c2c1C`, for which the GI50 was inactive: 49.2 µM. `Brc1ccc2[nH]cc([C@H]3CN[C@@H](c4c[nH]c5ccc(Br)cc45)CN3)c2c1`: the GI50 is inactive: 2.8 µM. As for `O=C(O)Cn1c(=O)[nH]c(=O)c2c1ncn2Cc1ccccc1`, the figure is inactive: > 100 µM; as for `CC1(C)CCc2cc3c(cc2O1)OC(C)(C)C1c2c(ccc4c2CCC(C)(C)O4)OC31` (centres undefined), inactive: > 100 µM. As for `COC(=O)c1ccc(C)cc1/C=C1\Cc2ccc(C)cc2C1=O`, the figure is inactive: 29.9 µM; as for `CCO/C=C(\C(=O)OC)S(=O)(=O)c1ccc(C)cc1`, inactive: > 100 µM; as for `CCn1c2ccccc2c2cc(/N=N\c3ccc(C#N)cc3)ccc21`, inactive: 40.6 µM. As for `Cc1ccc(O)c(Cc2nc3ccccc3nc2-c2cccc(Cl)c2)c1`, the figure is inactive: > 100 µM. For the compound `CCOC(=O)C1=CNC(C(=O)OCC)C1c1cccn1-c1ccc(Cl)cc1[N+](=O)[O-]` (centres undefined), the GI50 was inactive: 23.2 µM.

For the compound `CC(C)(C)c1cc(C2=NNC(c3ccccc3)C2)cc(C(C)(C)C)c1O` (centres undefined), the GI50 is inactive: 20 µM. As for `Cc1ccc(S(=O)(=O)c2c(O)c3ccccc3n(C)c2=O)cc1`, the figure is inactive: > 100 µM. As for `CC(C)N(C(C)C)P(OCCC#N)OC1CC(n2cnc3c(=O)[nH]cnc32)OC1COC(=O)NCCCCCCNC(=O)OC(C)(C)c1ccc(-c2ccccc2)cc1` (centres undefined), the GI50 is inactive: 78.3 µM. As for `CC(N)/C(N)=N/O` (centres undefined), the figure is inactive: > 100 µM. In the case of `Cc1cc2c(c(C(=O)NCC(=O)O)c1)Oc1c(cc(C)cc1C(=O)NCC(=O)O)S2` it was inactive: > 100 µM; in that of `O=C(CC1(O)C(=O)Nc2ccccc21)c1ccc(Cl)cc1Cl` (centres undefined), inactive: > 100 µM. In the case of `CCOC(=O)/C(C#N)=C/c1ccc2c(c1)CC1(C2)Cc2cc(CC)c(C(C)O)cc2C1` (centres undefined) it was inactive: 32.3 µM; in that of `O=c1[nH]nc(Cc2ccc(Cl)cc2)n1/N=C\CC/C=N\n1c(Cc2ccc(Cl)cc2)n[nH]c1=O`, inactive: > 75.5 µM; in that of `C/C(=N/NS(=O)(=O)c1ccccc1)c1cccc[n+]1[O-]`, inactive: > 100 µM. As for `O=C1C=CC(=O)N1Nc1ccc([N+](=O)[O-])cc1[N+](=O)[O-]`, the GI50 was inactive: > 100 µM. `Cn1c(=O)c2[nH]c(C3CC(=O)CC(c4nc5c([nH]4)c(=O)n(C)c(=O)n5C)N3)nc2n(C)c1=O` (centres undefined): the GI50 was inactive: 97.5 µM. In the case of `COc1ccc(C2=Nc3ccccc3NC(=O)C2)cc1`, the GI50 was inactive: 85.1 µM. For the compound `COc1ccc(Cc2cc3c(cc2OCC(=O)O)OCO3)cc1`, the GI50 is inactive: > 100 µM.

As to `CN(CCNC(=S)c1cn(C)c2c1ccc1ccccc12)CCNC(=S)c1cn(C)c2c1ccc1ccccc12`, the GI50 is inactive: > 100 µM. On to `COc1ccc2oc(=O)c(-c3cc4c(c(C)n3)c(=O)oc3ccc(OC)cc34)cc2c1`, for which the GI50 was inactive: > 100 µM. As for `CCCCSC(=CC(=O)c1cccc(C(=O)C=C(SCCCC)SCCCC)n1)SCCCC`, the figure is inactive: > 100 µM; as for `CCOc1nc2sc3c(c2c(=O)n1CCSSCCn1c(OCC)nc2sc4c(c2c1=O)CCCC4)CCCC3`, inactive: > 100 µM. Turning to `COc1ccc(NC(=O)c2oc3cc(O)ccc3c(=O)c2C)c([N+](=O)[O-])c1`, the GI50 was inactive: > 100 µM. Consider `CCCNC1=C2CC(C)CC(OC)[C@@H](O)[C@H](C)/C=C(\C)C(OC(N)=O)C(OC)/C=C\C=C(/C)C(=O)NC(=CC1=O)C2=O` (some centres undefined), for which the GI50 was active: 0.0631 µM.

Turning to `CCOC(=O)CN.CCOC(=O)Nc1ccc(S(=O)(=O)OC)cc1.CCOC(=O)Nc1ccc(S(=O)(=O)OC)cc1`, the GI50 was inactive: > 50 µM.

Consider `Clc1ccc(C(c2ccc(Cl)cc2)c2cncnc2)cc1`, for which the GI50 was inactive: 16.6 µM.

Regarding `O=c1c(C(c2ccccc2)c2c(O)oc3cc(O)ccc3c2=O)c(O)oc2cc(O)ccc12`, the GI50 was inactive: > 100 µM. On to `Cc1ccc(S(=O)(=O)N2CCCSCC2)cc1`, for which the GI50 was inactive: > 100 µM. On to `c1ccc2c(CNCCCCCCCCNCc3cccc4ccccc34)cccc2c1`, for which the GI50 was inactive: 1.71 µM.

On to `CCCCCCCCCCCCCCCCC(C(=O)O)C(O)(CC(=O)O)C(=O)O` (centres undefined), for which the GI50 was inactive: 19.3 µM. In the case of `O=C1/C(=C/c2c(Cl)[nH]c3ccccc23)c2ccccc2N1c1ccccc1` it was inactive: 12.2 µM.
